Here are results for one substance from ChEMBL document CHEMBL1156636, “Reductive heme-dependent activation of the n-oxide prodrug AQ4N by nitric oxide synthase” (J Med Chem, 2008).

The term Km denotes the concentration of substrate that gives half-maximal velocity.

Data set [1] has as its system C[N+](C)([O-])CCNc1ccc(NCC[N+](C)(C)[O-])c2c1C(=O)c1c(O)ccc(O)c1C2=O. As to conditions: Homo sapiens.
The subject of a further data set is N=C(N)NCCC[C@H](N)C(=O)O. As to conditions: Homo sapiens.

With “Nitric oxide synthase, inducible (Homo sapiens) (sequence left out)”, the Km in data set [1] is 130 µM; with N=C(N)NCCC[C@H](N)C(=O)O, 2.8 µM.
